The list shows a part of the results.
T1: UNK ZnF1-3 (human, UniProt Q9C0B0 31-174)
T1 sequence: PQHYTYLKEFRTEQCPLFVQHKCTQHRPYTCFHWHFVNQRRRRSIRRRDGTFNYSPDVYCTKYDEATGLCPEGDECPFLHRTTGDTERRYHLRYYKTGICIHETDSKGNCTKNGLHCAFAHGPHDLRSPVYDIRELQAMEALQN

B1: 41243356_41243476_1275_CDS_ENSMUSG00000028436_ENSMUST00000030145|mouse|control|control (ssRNA)
RNA: GGGAGUUCUACAGUCCGACGAUCCCUGGAGCAGACAGACUUGACGUUGUACGAUGGCUGCCGUGGAUCCAAGAAGGAGACAUGCGCUUGAGAGCCCACUGCAUACACUGACCACUCACUACCAUAGGCCAGACACACGUUUUCCAACAGAGGAUUGAGCAUCA
B2: 16965487_16965607_2015_CDS_ENSMUSG00000020580_ENSMUST00000020904|mouse|control|control (ssRNA)
RNA: GGGAGUUCUACAGUCCGACGAUCGAUAAAUUCCUUUUCAAGUUUUAACUUGGCAGUCUCAAGCAGGCAGUUUUUAUCUUGUAGAUCUCUAUUGUUAGAUUCCAGCUGCUGAAUCUGUUUGGAACUUUCUGCCUGGGUUUUUCUCAACAGAGGAUUGAGCAUCA
B3: chrX:71549762:71549763:+_ENSMUSG00000019087_ENSMUST00000019231|mus_mus|mus_mus_mus_hu_False|18_78 (ssRNA)
RNA: GGGAGUUCUACAGUCCGACGAUCAAACCCGUGUACUUCUUAUUGUUAGCACAACAUUCCCCCCCAACGAUAACGACAGCCAAGCAGGACAGACAGUUAAGUAGUACUUCCACACUCCGCAAAUUCAGGAGCCCUAUAACCUUACAACAGAGGAUUGAGCAUCA
B4: chr8:104447970:104447971:+_ENSG00000164934_ENST00000297579|hu_hu|hu_hu_hu_mus_False|48_48 (ssRNA)
RNA: GGGAGUUCUACAGUCCGACGAUCAUACACUUCCCUGCUUCGGCUCUUGUCCACAGGAAAGAUUCUAAUAGACUUAUCAAAGCUGGCAGACACAAACUCCUUCCCAGUGGGAGAGUAGUCCACAUCAAGUACUGCAGACACGUGCAACAGAGGAUUGAGCAUCA
B5: chr2:202488911:202488912:-_ENSG00000155755_ENST00000286196|hu_mus|hu_hu_hu_mus_False|1_88 (ssRNA)
RNA: GGGAGUUCUACAGUCCGACGAUCAUUGAAACAUUUUUCAUAAUCUCAGAGAUGUUUUCAGCAUUAUGUAACAAAAGCUCAAUUGUAAAUACAUGUAUCUUAUAAAAAUACACUUAAAAACACGAGUGGGGAGCGCACAAAUACCAACAGAGGAUUGAGCAUCA
B6: 76452574_76459438_1178_CDS_ENSMUSG00000024563_ENSMUST00000168423|mouse|control|control (ssRNA)
RNA: GGGAGUUCUACAGUCCGACGAUCAUCCAAGCUGUGAUUAACAGGAGAGAGAGUAGUAGGAGACAGUUCAGCCGGAGAGCCUGUGUCCAUACUUUGGUUCAACUGUUGGUCACUUGUUUCUCCAUCUUCACUGAUAUAUCCAGGCAACAGAGGAUUGAGCAUCA
B7: chr11:68582865:68582866:-_ENSG00000110090_ENST00000265641|hu_hu|FALSE|FALSE (ssRNA)
RNA: GGGAGUUCUACAGUCCGACGAUCCUUGAAUCUGAUGAACUUCUUUUUCCAGGAAUGAAGUCCAGAGAGAUAGAUUUGUCUAAGAGCUUCAUGGCUCAGCCGCAGGUCAAUCCCGUCCGGAGUGACCGUGAACUGAAAGGCCACCAACAGAGGAUUGAGCAUCA
B8: chr2:191069868:191069869:-_ENSG00000198130_ENST00000359678|hu_hu|FALSE|FALSE (ssRNA)
RNA: GGGAGUUCUACAGUCCGACGAUCUAUAAAAACAGGCAGCAGGCUGGAUUUGGCCCACAUGCUGUAGAUUGCCAACCCAUGCUACAAAAUAUACCUUAAAAGCCUGUCACCUCAAAAUUUCAAAUCACUGCUUCCCAAAGACUUCAACAGAGGAUUGAGCAUCA
B9: chr11:2905015:2905016:-_ENSG00000129757_ENST00000380725|hu_hu|FALSE|FALSE (ssRNA)
RNA: GGGAGUUCUACAGUCCGACGAUCUUCAAAAUUUAAAAACAAAACCGAACGCUGCUCUGCGGCAGCCGCCGCCGGUUGCUGCUACAUGAACGGUCCCAGCCGAGGCCCAGCGCCCUUCCAACGUCCGCUGCCCCGGCAGGUUCCCAACAGAGGAUUGAGCAUCA
B10: chr10:33214929:33214930:-_ENSG00000150093_ENST00000302278|hu_hu|hu_hu_hu_mus_True|28_108 (ssRNA)
RNA: GGGAGUUCUACAGUCCGACGAUCAACAAGUUCAUUAAAAAACUCUCCUCUGUCAGUAAGACUAAGCACAUUUUUGUAGCUAAAUGGGCUGGUGCAGUUUUGUUCACUUGUGCAAGGAUUUCUUAGCUUUGCUGGGGUUGUGCUCAACAGAGGAUUGAGCAUCA
B11: chr12:39763582:39763583:-_ENSG00000139116_ENST00000544797|hu_mus|hu_hu_hu_mus_False|48_68 (ssRNA)
RNA: GGGAGUUCUACAGUCCGACGAUCCUCUAGGAACUGGGCAUUCACUUUGAAUUCAGGAGGGGGCAGCCCAUUUUUAAUCGCUGAGGUUUUUUUUUCUUCAAUACUCUUGAACAGGUGUCUAACAGCACGAGAGAUGAUGCCCUGCAACAGAGGAUUGAGCAUCA
B12: chr12:72996743:72996744:+_ENSMUSG00000034574_ENSMUST00000085299|mus_mus|FALSE|FALSE (ssRNA)
RNA: GGGAGUUCUACAGUCCGACGAUCAUAAAUGAAAUCCCCCGGCCGCCUCUCUUCCGUGGGGCCAUGGUUGAAUUCUCUCCUAUUUCUUGAUAUUUCUAUACUCUACUGGCCCCGGAGCUCCGGGAAGCAGCAGGAGGGCGCGCCCAACAGAGGAUUGAGCAUCA
B13: chr7:140404665:140404666:+_ENSG00000090266_ENST00000247866|hu_hu|hu_hu_hu_mus_False|8_38 (ssRNA)
RNA: GGGAGUUCUACAGUCCGACGAUCUGCUCCUACUCGUCCAGAGAGUUUACAGUGUCAGUCCUCGUCAUCAGGAGGGAUUCCCAGUUCUUCAUCUGUCCACUGGGAAGGAUCUGGAUAUGAAAAGUGACCCAGCACCUCAUCCGACAACAGAGGAUUGAGCAUCA
B14: 107340845_107340965_108_CDS_ENSMUSG00000020720_ENSMUST00000021063|mouse|control|control (ssRNA)
RNA: GGGAGUUCUACAGUCCGACGAUCGUCCACCGUGGCGCUGUAGUCCACUUCCAUCUUCACAAUGCGCCCAUCGGCCCGCUCCGAGCCACCGUCCGCCAUGGUCCCUGCCUAAGAGUCCCCUGCUGUACCCCAGGUUCGGCCACCCAACAGAGGAUUGAGCAUCA

target: T1, UNK ZnF1-3; assay: nsRBNS (natural sequence RNA bind-n-seq); RBNS binding buffer (assumed for nsRBNS): 25 mM Tris pH 7.5, 150 mM KCl, 3 mM MgCl2, 0.01% Triton X-100, 500 ug/ml BSA, 20 U/ml SUPERase-In, 4 C; UNK is unkempt and MSI1 is Musashi-1; names of the RNAs are library labels; protein concentration not given here; high values mean tight binding

Binder | binding signal [enrichment R]
B1 | 1.24
B2 | 0.321
B3 | 1.78
B4 | 1.05
B5 | 1.24
B6 | 1.18
B7 | 0.441
B8 | 1.68
B9 | 0.975
B10 | 0.992
B11 | 1.52
B12 | 0.467
B13 | 1.35
B14 | 0.908

From publication PMC12136788
